# Experimental data from PubChem BioAssay AID743449 (Broad Institute, 2014).
# The campaign covered roughly 9,900 compounds. About 90 (0.9%) were called active. Inconclusive results, whose numbers are uncertain, are shown with a selection of clear calls.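 The calls were made as follows: active = mean normalized replicate activity at least 50 and at least half of replicates each reaching 50; inconclusive = only one of the two criteria met; inactive = neither criterion met.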
# Assay: reduction of CTGF mRNA in DLD1 cells – DLD1 colon cancer cells, RT-qPCR, single point, primary screen (AID 743449);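 also: 0% = neutral control wells and 100% = dasatinib control wells; higher means stronger suppression of CTGF expression like dasatinib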
# Conditions: 24 h, at 12.5 µM, stronger effect = higher value
row,Compound,inhibition
1,O=C(Nc1ccc(C(F)(F)F)cc1)Nc1ccc2c(c1)[C@H]1C[C@H](CC(=O)N3CCc4ccccc4C3)O[C@@H](CO)[C@H]1O2,active: 57.2%
2,O=C(Cc1ccccn1)N1CC(=O)N2[C@@H](CO)[C@H](c3ccc(C#CCC4CCCC4)cc3)[C@@H]2C1,inconclusive: 41.1%
3,Cc1ccccc1-c1ccc([C@H]2[C@@H](CO)N3CCCCN(S(=O)(=O)Cc4ccccc4)C[C@@H]23)cc1,active: 66%
4,COc1ccc(-c2ccc([C@H]3[C@H](CO)N4C(=O)CN(Cc5ccccc5)C[C@@H]34)cc2)cc1,inactive: -9.55%
5,COc1ccccc1NC(=O)N[C@H]1CC[C@@H](CCNS(=O)(=O)c2ccc(Cl)cc2)O[C@H]1CO,inconclusive: 15.6%
6,COc1ccccc1-c1ccc([C@@H]2[C@@H](C#N)N(C(=O)c3cccnc3)[C@@H]2CO)cc1,inconclusive: 42%
7,C[C@H](CO)N1C[C@H](C)[C@H](CN(C)Cc2ccccc2C(F)(F)F)OCc2ccccc2-c2ccccc2C1=O,inactive: 26.5%
8,Cc1ccc(S(=O)(=O)Nc2ccc3c(c2)C(=O)N([C@H](C)CO)C[C@@H](C)[C@H](CN(C)S(=O)(=O)c2cccs2)OCCCC[C@@H](C)O3)cc1,active: 57.5%
9,C[C@@H]1CCCCO[C@H](CN(C)C(=O)CCCN(C)C)[C@@H](C)CN([C@@H](C)CO)C(=O)c2cc(NC(=O)Nc3ccc4c(c3)OCO4)ccc2O1,inconclusive: 28.7%
10,O=C(Nc1ccc(C(F)(F)F)cc1)Nc1ccc2c(c1)[C@@H]1C[C@H](CC(=O)N3CCc4ccccc4C3)O[C@H](CO)[C@@H]1O2,inactive: -58%
11,CC(C)[C@H]1C(=O)N[C@H](c2cccc(Cl)c2)CC=CC[C@@H](C)Oc2ccccc2C(=O)N1C (mixture of isomers),inconclusive: 19.4%
12,CC(C)(C)[S@](=O)N1Cc2cc(C(=O)NCc3ccccn3)nc(-c3cccc(-c4ccccc4F)c3)c2[C@@H]1CCO,active: 53%
13,O=C(Nc1ccc(C(F)(F)F)cc1)N[C@H]1C=C[C@H](CC(=O)N2CCCCC2)O[C@H]1CO,inconclusive: 14.7%
14,CO[C@H](CN(C)S(=O)(=O)c1ccc(C)cc1)[C@H](C)CN([C@@H](C)CO)S(=O)(=O)c1cccc(Cl)c1,inactive: 1.44%
15,C/C=C/c1ccc([C@H]2[C@@H](CO)N(C(=O)Nc3ccccc3F)[C@H]2C#N)cc1,inactive: 23.1%
16,N#C[C@@H]1[C@H](c2ccccc2-c2cccc(F)c2)[C@H](CO)N1C(=O)c1cccnc1,inconclusive: 31.4%
17,O=C(N[C@H]1CC[C@@H](CCn2cc(-c3ccccc3F)nn2)O[C@H]1CO)c1ccc2c(c1)OCO2,inconclusive: 42.7%
18,O=C([C@H]1[C@H](CO)[C@H]2Cn3c(ccc(-c4ccc(F)cc4)c3=O)[C@H]2N1Cc1cocn1)N1CCCCC1,active: 53.6%
19,C[C@@H](O)C#Cc1ccc([C@H]2[C@H](CO)N3CCCCN(C(=O)c4ccc5c(c4)OCO5)C[C@@H]23)cc1,inconclusive: 38.4%

row,Compound,inhibition
1,C[C@H](CO)N1C[C@H](C)[C@@H](CN(C)S(=O)(=O)c2cccs2)Oc2ccc(NC(=O)Nc3cccc4ccccc34)cc2C1=O,inactive: 3.66%
2,CCCC#Cc1ccc([C@@H]2[C@H]3CN(S(=O)(=O)c4ccccc4C)CC(=O)N3[C@H]2CO)cc1,inactive: 26.1%
3,C[C@@H]1CN([C@H](C)CO)C(=O)CCCn2cc(nn2)CO[C@@H]1CN(C)C(=O)Nc1ccc2c(c1)OCO2,inconclusive: 29.9%
4,COc1cccc(NC(=O)N2[C@H](CO)[C@@H](c3ccccc3)[C@H]2CNCC(C)C)c1,inconclusive: 2.04%
5,C[C@@H]1CN([C@@H](C)CO)C(=O)CCCn2nncc2CO[C@H]1CN(C)C(=O)NC1CCCC1,inconclusive: 16.8%
6,C[C@H](CO)N1C[C@H](C)[C@@H](CN(C)C(=O)c2cc(-c3ccccc3)on2)OCc2cnnn2CCCC1=O,inactive: -12.2%
7,COc1ccccc1C(=O)Nc1ccc2c(c1)C(=O)N(C)C[C@H](OC)[C@@H](C)CN(C(C)=O)[C@@H](C)CO2,active: 64.2%
8,CCCNC(=O)N1[C@@H](C#N)[C@@H](c2ccc(C#Cc3cccc(F)c3)cc2)[C@@H]1CO,inactive: 40.6%
9,C[C@@H]1CN([C@@H](C)CO)S(=O)(=O)c2ccc(C#CCC3CCCC3)cc2O[C@@H]1CN(C)C(=O)c1cnccn1,inconclusive: 38.2%
10,Cc1noc(C)c1S(=O)(=O)N(C)C[C@H]1OCc2ccccc2-c2ccccc2C(=O)N([C@@H](C)CO)C[C@H]1C,inconclusive: 24.5%
11,C[C@@H]1CN([C@H](C)CO)C(=O)CCCn2nncc2CO[C@H]1CN(C)Cc1ccc(C(=O)Nc2ccccc2N)cc1,inactive: -132%
12,CCS(=O)(=O)Nc1ccc2c(c1)C(=O)N(C)[C@H]1CC[C@H](CC(=O)N3CCN(C)CC3)O[C@H]1CO2,active: 51.4%
13,CN1C(=O)c2cc(NC(=O)c3cccc(Cl)c3)ccc2OC[C@H]2O[C@H](CC(=O)NC3CCCCC3)CC[C@H]21,inactive: -12.4%
14,COc1cccc(C#Cc2ccc3c(c2)O[C@H](CN(C)C(=O)CN2CCOCC2)[C@H](C)CN([C@@H](C)CO)S3(=O)=O)c1,inactive: 22.3%
15,COc1cccc(C(=O)Nc2ccc3c(c2)OC[C@H](C)N(CCc2ccccc2)C[C@@H](C)[C@@H](OC)CN(C)C3=O)c1,inconclusive: 29.4%
16,C[C@H]1CN([C@@H](C)CO)C(=O)CCCn2nncc2CO[C@H]1CN(C)S(=O)(=O)c1ccc(Oc2ccccc2)nc1,inconclusive: 37.5%
17,Cc1ccc(S(=O)(=O)N2CC[C@H]3[C@H](CO)Nc4ccc(-c5cccc(C(=O)N(C)C)c5)cc4[C@H]32)cc1,active: 56.9%
18,C[C@@H]1CN([C@H](C)CO)C(=O)c2ccccc2-c2ccccc2CO[C@@H]1CN(C)Cc1ccc2c(c1)OCCN2C,active: 68.3%
19,C[C@H](NC(=O)C[C@H]1C[C@H]2c3cc(NS(=O)(=O)c4ccc(F)cc4)ccc3O[C@H]2[C@@H](CO)O1)c1ccccc1,inconclusive: 23.9%
